± gives the standard deviation of the averaged measurements. The list shows a part of the results.

For this experiment, the system named is PfAP2-LT AP2 domain (GST-tagged). In words: gcPBM binding intensity (ln(normalized median fluorescence intensity)); higher = stronger DNA binding. In short, it runs like this:
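The highest Masliner-normalised natural-log median intensity across replicate spots of either probe orientation is reported as binding intensity. GST-tagged P. falciparum DNA-binding domains expressed in E. coli were applied for 1 h to an Agilent 4 × 180k array of primer-extended double-stranded 36-bp intergenic genomic probes plus negative controls, and bound protein was detected with Alexa488 anti-GST antibody and scanned at 488 nm.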
As to “GTCGTATAATTTTCAGTGCAATATTTGAATAAATGG [GTGCAC_site9404]”, the “gcPBM binding intensity (ln)” value came out at 8.71 ± 0.43. As for “ATTTATTAATTACCATGTATAAAAAATTATATAATA [CACACA_negctrl_site581]”, the figure is 8.25 ± 0.4. Consider “ATACAATACAAAAACACACACAAAAAAAGAAAAGGA [CACACA_site2156]”, for which the “gcPBM binding intensity (ln)” value came out at 9.63 ± 0.43. As to “AGCAACTCAATATATATAAGAATTGTAATATAATAT [GTGCAC_negctrl_site429]”, the “gcPBM binding intensity (ln)” value amounted to 8.7 ± 0.54. As for “AAAAAAAAAAAATACACACACATATTTATTTATATA [CACACA_site7114]”, the “gcPBM binding intensity (ln)” value was determined as 9.22 ± 0.33.

Turning to “AAAAAAGGTAAAAAAAGTACAAAAAAAAAATTAAAA [XGTACX_site6993]”, the “gcPBM binding intensity (ln)” value turned out to be 8.65 ± 0.61. As to “AGTAGTCTGGAGAAAAGTACATAGTATCTGATAACC [XGTACX_site2028]”, the “gcPBM binding intensity (ln)” value amounted to 8.86 ± 0.5. Regarding “TATTATAATATATTTGTGCACATAATATCTCCGCTA [GTGCAC_site9799]”, the “gcPBM binding intensity (ln)” value is 8.95 ± 0.53. With “AAAAAGATAAAATATACATGCATATATAATATACAT [TGCATGCA_site488]”, the “gcPBM binding intensity (ln)” value was 8.94 ± 0.4.

As for “TGCTTATATATAAATTGTACTGAAAGAATAAAATAA [XGTACX_site4025]”, the “gcPBM binding intensity (ln)” value was 8.47 ± 0.4. As for “TTTATTTTAAATGGGTGTACTCATTCCTTATGGAAG [XGTACX_site1397]”, the figure is 8.42 ± 0.58; as for “TAATAGATGTTATGAAGTACTAAATATTAAATATAA [XGTACX_site5717]”, 8.59 ± 0.45; as for “AAAATAATTCATGTTGGTAATAAGACTCGAGGTGAA [CACACA_negctrl_site1054]”, 8.82 ± 0.45. Next, “TTGACAGGAACGTTGGTGCACGTACTGTTTTTCTTT [GTGCAC_site9389]”: 8.84 ± 0.39; “TTTGGATAAAAAATATGTACACACATATAGATATCT [XGTACX_site5660]”: 8.88 ± 0.32; “GTATAATATTTTAATGCACACACACTAATAAAAAAA [CACACA_site8939]”: 9.41 ± 0.36. Regarding “AAGTATAAATAAAGGCGTACACATGTAAATTATATT [XGTACX_site126]”, the “gcPBM binding intensity (ln)” value was determined as 9.28 ± 0.5.

As to “TGTTCATTTTTAAAATGTACATATATGTTGTTCCAT [XGTACX_site8444]”, the “gcPBM binding intensity (ln)” value amounted to 8.92 ± 0.54. Consider “AAAACATAAATACATACACACATAATATAGATTAAT [CACACA_site6205]”, for which the “gcPBM binding intensity (ln)” value worked out at 9.38 ± 0.4. With “TATATACAACGTTAAGCACACACAAAAAAAATTTAA [CACACA_site9013]”, the “gcPBM binding intensity (ln)” value was 9.15 ± 0.52. Next, “CATATGTATATGACTACACACAAGGGTGTACCTATA [CACACA_site6670]”: 9.19 ± 0.44; “TTAAAAATAAATTCATGTACATAATATATATATATA [XGTACX_site7908]”: 8.68 ± 0.27; “TTGCATTTATTATACACACACAAAAAAATATTTATA [CACACA_site6252]”: 9.08 ± 0.33. Next, “ACGTATTTTTAAATATATGAATTATGTAACTTGTGA [CACACA_negctrl_site1446]”: 8.53 ± 0.38. As for “TATACTATTTAAATGTGTACTAAAAGAATATATTAT [XGTACX_site5238]”, the figure is 8.53 ± 0.42.

As for “GAATATGTGATATTTTGTACATAAAAATAATATATA [XGTACX_site6398]”, the “gcPBM binding intensity (ln)” value was found to be 8.7 ± 0.55. Next, “CTATATGTTAAATTCTCACACATTATTACAATTTAA [CACACA_site5979]”: 8.66 ± 0.52; “TTTTTTTTTTTGTTTAAACACACGAGCTTTCTTCTT [CACACA_site4085]”: 9.06 ± 0.59.

Consider “CATGTATTTTATATTACACACTAATATTATAGATAT [CACACA_site6819]”, for which the “gcPBM binding intensity (ln)” value came out at 8.71 ± 0.4. As for “AAACATATAAACATATGTACATATAAACATATATAC [XGTACX_site5026]”, the figure is 9.03 ± 0.38; as for “ATATTCTTTTTATGTGGTACTAATTTTTTTTTTTTA [XGTACX_site3791]”, 8.66 ± 0.57. Next, “TAAAACATAAGAGACACACACACATATATATATATA [CACACA_site3643]”: 10.1 ± 0.16; “TTTTTAAAACATCACTGTACCCGTTATGGTGAACAT [XGTACX_site3483]”: 8.62 ± 0.49; “AGTAAAAGAAAGCACACACACATGTATATAGGTATG [CACACA_site7759]”: 9.87 ± 0.34.

“TTTTTAAATAATTGAAGTACACATTTCTCTAAGTTG [XGTACX_site2846]”: the “gcPBM binding intensity (ln)” value was found to be 8.39 ± 0.46. For “TTTTTAATTATCTTTTCCCATGGTTTCTCCGTTTTT [XGTACX_negctrl_site39]”, the “gcPBM binding intensity (ln)” value was 8.93 ± 0.56. Next, “CAAAATAAAAATAACACACACATTTATATATATACA [CACACA_site1190]”: 9.4 ± 0.39. As for “ATATGTTTTGTTTACGTGCACTGCTTTGTTTATATA [GTGCAC_site9622]”, the figure is 9.4 ± 0.45; as for “AGCATATTATCATATTGTACATATTATAATATATAT [XGTACX_site3907]”, 8.93 ± 0.38; as for “ATTTCTCAATCTTAATGTACAAAAAAAAGGAAAAAG [XGTACX_site1210]”, 8.49 ± 0.45. In the case of “TAAAAATTTTAATAAACACACAATGAGATATTGAAT [CACACA_site5704]”, the “gcPBM binding intensity (ln)” value is 8.71 ± 0.43.

Consider “AGCAAATCAGATAGTAGTACATTTAAATTAGACTTT [XGTACX_site4172]”, for which the “gcPBM binding intensity (ln)” value worked out at 8.7 ± 0.52. As for “TATATATATATATGTGCATGTAATGATTCAGCATCT [TGCATGCA_site803]”, the figure is 9.69 ± 0.2; as for “CACATATAGTTATATGCACACATCTTACACATCTAT [CACACA_site5937]”, 9.44 ± 0.46; as for “AACACAGATAAATTAACACACACACCCATATATATA [CACACA_site9310]”, 9.85 ± 0.23. Consider “TAGCTTATTAATATCATACACACATAGATATATTTA [CACACA_site3105]”, for which the “gcPBM binding intensity (ln)” value was determined as 8.77 ± 0.35. As for “ATGAAATATCGGAACGCACACATAAATATATTTATA [CACACA_site2670]”, the figure is 9.27 ± 0.45; as for “TTGAACTCTCTTACGCGTACGTGTTATTATGAAAAT [XGTACX_site6265]”, 8.98 ± 0.42.

For “CAATTTGGGGTGTACACACACCTTATTTAAATTAAA [CACACA_site6663]”, the “gcPBM binding intensity (ln)” value stood at 8.86 ± 0.51. In the case of “ATCATGTTATATACATGTACATATATATATATATAA [XGTACX_site609]”, the “gcPBM binding intensity (ln)” value was 9.19 ± 0.3. As for “TTTTATTTTTTTAAATGTACACATATTAATGTAAGG [XGTACX_site319]”, the figure is 8.43 ± 0.44. Next, “ATCATCCAAGATCTTACACACATATTAAATAAATAA [CACACA_site1473]”: 8.95 ± 0.45. As for “AAAAGGAATATAATCATTCAAAAATATAATATATAT [GTGCAC_negctrl_site551]”, the figure is 8.62 ± 0.49; as for “TTACATAATTTCTGCTGTACCAATTTTGAGAAGTTG [XGTACX_site4023]”, 8.62 ± 0.5.

For “ATGTAAATATATATATGTACTAATTAGTAGTTTACG [XGTACX_site6271]”, the “gcPBM binding intensity (ln)” value was 9.15 ± 0.46. Next, “TCCTTATTACTTTTTTAAGTCGTAATGAAAGAAAAA [CACACA_negctrl_site1497]”: 8.14 ± 0.35; “CATACATACATACATACACACATACAGATATATATA [CACACA_site4890]”: 9.4 ± 0.38; “TTTTATAAATTATAATTCTATTATCTGTTCTTTTTA [TGCATGCA_negctrl_site487]”: 8.68 ± 0.61. Take “ATCTTAACTCTATGCACACATAAAAGTATATAAATA [CACACA_site2256]”: the “gcPBM binding intensity (ln)” value came to 8.87 ± 0.35. Next, “TACGTTCTGATATATACACACCTGGTATTAATTATG [CACACA_site7113]”: 9.2 ± 0.44. As for “AGAAAAATTATATATACACACTTATATTTATATATA [CACACA_site5555]”, the figure is 8.69 ± 0.44; as for “AGTATACGCAAACACACACACACAAAAAAAAAAAAA [CACACA_site426]”, 9.91 ± 0.53.

In the case of “TATTATATTTATATTTGTACTTAAAATATTATACAC [XGTACX_site2881]”, the “gcPBM binding intensity (ln)” value is 8.71 ± 0.45. Next, “AAATAAGAAAATCATAGTACATAGGAATAGAAGAAC [XGTACX_site3135]”: 9.15 ± 0.45; “AATGTCATGATACATACACACACATACACATACACA [CACACA_site8665]”: 9.67 ± 0.3. Next, “TATTAAATATTGTAATGTACATATATAATATAATAT [XGTACX_site1809]”: 8.57 ± 0.33; “ATATCTTATTTTCCTTGTACTTATTTCATAATTACA [XGTACX_site3894]”: 8.91 ± 0.33.

With “CAATAAACCATTTTTTGTACATAAAAATAGGTATTG [XGTACX_site1892]”, the “gcPBM binding intensity (ln)” value came to 8.62 ± 0.38. As for “AATTTCCCATATTACACACATACTATGATATATAAA [CACACA_site3834]”, the “gcPBM binding intensity (ln)” value was determined as 8.88 ± 0.32. For the sequence “TAAATATGTATAAATTGTACAAAATATATGAATAGT [XGTACX_site5659]”, the “gcPBM binding intensity (ln)” value was 9.01 ± 0.39. Next, “TTTTTTTTTTTAAATTGTACTTATTTTATATTATAT [XGTACX_site1077]”: 8.54 ± 0.56; “CATACACCCATACATACACACATACATATATATATA [CACACA_site8591]”: 9.62 ± 0.15; “ATATAATGTTTCACATGTACAAACAACACAAAAAAA [XGTACX_site1899]”: 8.84 ± 0.45. Next, “AAAAGATATATTATATGTACTAATTATATGATAAAT [XGTACX_site4192]”: 8.6 ± 0.54; “AATTATGAAAAATCAAGTACAAACAAAATCATAATT [XGTACX_site5665]”: 9.1 ± 0.42; “AAAGAGAAATTTAAATGTACATTTGTTCTAAGTGTA [XGTACX_site3602]”: 8.61 ± 0.49. Next, “TTAAAAAAAGAAAAAAAAAAAAAAAAAAAAAAACAT [CACACA_negctrl_site475]”: 8.64 ± 0.61; “TATAAAAATATTTCTACACACATTAATATTTATATA [CACACA_site6661]”: 8.67 ± 0.41. Take “TATTATATTCTGCTTACACACATATATATATATATA [CACACA_site3060]”: the “gcPBM binding intensity (ln)” value is 9.5 ± 0.085. Next, “GTGATAATTGCTTGGTGTACCCACATATATATATAT [XGTACX_site1636]”: 9.38 ± 0.32. Next, “GTTCTAAATATTATTGCATGTTGCACGTTTCTCTGT [TGCATGCA_site159]”: 9.26 ± 0.38. “TTCTGTTGGAATATATGTACATAATAAAAAAAAATA [XGTACX_site1741]”: the “gcPBM binding intensity (ln)” value is 8.48 ± 0.47.

In the case of “AATAAATAAAAAAAAAAAAAAAAAAAAAAAAAAAAA [XGTACX_negctrl_site343]”, the “gcPBM binding intensity (ln)” value is 8.14 ± 0.47. As for “TTTTTTTTTTTTGTAATACACACCACTATATGTTAT [CACACA_site1844]”, the figure is 8.92 ± 0.49; as for “TGTAGTCTGGAGAAAAGTACACAGTATCTGGTAACA [XGTACX_site2010]”, 8.78 ± 0.53. As for “AGTTTTATAAAAATATGTACTTATATACACATGTAT [XGTACX_site4022]”, the figure is 8.98 ± 0.45; as for “TATGGCAAAACATTCACACATATTTATATATGTGTA [CACACA_site5588]”, 8.88 ± 0.32. On to “TATTCTGGTGTAAATGCACACAGAAGAAGAAAAAAA [CACACA_site9225]”, for which the “gcPBM binding intensity (ln)” value was determined as 8.98 ± 0.54.

For the origin of these results see the supplement of paper PMC11417369.
